From the supplement of paper PMC3334620
Over roughly 33,000 sequences, “E-score (-0.5 to 0.5)” has its median near -0.013; the highest 2% begin near 0.3. This is one part of the list.

Target: T1, Msn1 (UniProt P22148)
T1 sequence: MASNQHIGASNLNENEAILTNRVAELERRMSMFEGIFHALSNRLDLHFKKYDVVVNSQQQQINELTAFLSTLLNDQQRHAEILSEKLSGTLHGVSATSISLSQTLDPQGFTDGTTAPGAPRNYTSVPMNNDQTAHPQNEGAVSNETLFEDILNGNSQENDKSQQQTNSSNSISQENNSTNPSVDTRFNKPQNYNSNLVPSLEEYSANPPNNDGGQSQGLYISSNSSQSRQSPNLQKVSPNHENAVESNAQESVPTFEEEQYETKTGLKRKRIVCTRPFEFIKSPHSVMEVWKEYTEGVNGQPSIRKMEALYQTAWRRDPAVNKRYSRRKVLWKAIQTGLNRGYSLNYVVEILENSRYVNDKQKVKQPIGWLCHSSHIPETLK
Assay: PBM E-score (8-mer binding enrichment) (E-score (-0.5 to 0.5)); higher = stronger / more preferred TF binding; most listed sequences are background and not binding sites
Conditions: protein concentration: 200 nM; construct: GST-full length
Method in brief: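 Yeast transcription factors, full-length or as DNA-binding domains, were expressed with a GST tag using PURExpress in vitro transcription/translation. At about 100-200 nM they were applied to universal all-10-mer Agilent arrays, double-stranded by primer extension on fresh or once-stripped slides. Fluorescent anti-GST detected bound protein, and masliner normalised the scans. E-scores for ungapped eight-base words, pooled with reverse complements, came from the Universal PBM Analysis Suite.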

Sequence	PBM E-score
CCGGCTGA	-0.0276
AAGAAAAG	0.177
TCGTACAA	0.294
CCAAGCCA	-0.0784
GAAGGCCA	-0.328
AATAACAA	0.189
CACTACTG	0.0319
GAAACTAA	-0.0367
GCTATGAA	-0.00947
ATTGTACG	0.151
GTCCAGTA	0.192
AACACAAT	0.109
ATACACGC	0.02
CTGCCCCA	-0.0558
ATCGGGTG	0.0905
AATCCGCA	0.137
AAGGTATC	-0.173
CTATGGTC	-0.0526
CTGGCGTA	-0.252
TCCGGTCA	0.0024
AATGTGCT	0.0565
AGGGCCTA	-0.165
CTGGCATC	-0.195

Sequence	PBM E-score
ACGCTTTC	-0.0766
CACCTTGC	0.0437
TGGCTACA	0.0201
AAGGGAGA	-0.179
CAAACAAA	0.0138
GATCATGA	0.101
CTCATCAC	-0.201
GCTGCATA	0.0815
AATGGCCA	-0.0941
AGCTTTCA	-0.0202
ACCCCGAT	-0.0736
AAGTGCTA	-0.0669
GGTTGGAC	0.196
CGACGGTC	-0.161
CAAACAGC	0.0478
AGCGTCGA	0.0853
TCCACTAA	0.0462
CGCCCGAG	0.0386
ACTGCGTA	-0.188
ATAACATA	0.136
CTGGGTAA	0.0366
ACTCCTAA	-0.0352
CGCGCAAA	0.205

Sequence	PBM E-score
AAGGGCCA	-0.18
CCATATTA	0.21
GGCCTCTA	-0.261
GAGATAGA	0.0282
TCCATGGA	0.248
AAATGCAC	-0.0162
TATGCCCA	-0.0374
ATCAAGTG	0.0141
TAGTGTAA	0.107
AAACCCGA	0.298
AAGGAAGA	0.0146
ACCTGCTG	0.0675
CGCGAGAC	0.128
CCCATGTA	0.0749
AGGCATGC	0.0372
AACTTCAG	-0.0437
AGGAGTTC	-0.199
GTGATTGA	0.128
CGCAAACC	-0.0969
AAGTGTAC	0.182
GGTTGAAA	0.13
CTGGCCTC	-0.248
CCTCTAAG	-0.0853

Sequence	PBM E-score
GGGCGTAA	-0.124
GACTTCTA	0.00831
AGGCAGAC	-0.0708
ACTCGACT	-0.104
CCTAAGTC	-0.135
AGTGAAAT	0.149
GAGCCCAC	-0.265
CCTGAACA	-0.00749
ACGGTGGA	-0.202
CAAAGTAG	-0.0366
AATCTCCA	-0.0286
CGGGGGAC	-0.264
ACTATAGG	-0.121
CCCTGAGC	-0.142
ACTTCACC	0.119
AGCTTATA	-0.112
CATTGGAA	0.0709
ACCATCAG	-0.168
CGTCTGAG	-0.0146
ATAATTGC	-0.0717
CAACGTAA	-0.142
CGATAAGA	0.133
AGAGTTGG	-0.0301

Sequence	PBM E-score
GGTGGCAA	-0.068
CATGTCTC	0.343
CAAGGTAC	-0.0472
CGTTCATC	0.0608
ATACGTAC	0.0723
ATTACAGA	0.186
AAGAAGTG	-0.0155
ATTGTAGG	0.201
CCCTGGAG	-0.263
AGGGGACA	0.386
CCAAATTC	0.0869
ATGACCCA	-0.0666
CCCATAGC	-0.299
CTATATTA	0.17
CCTACCTC	-0.19
CCCCCGTA	-0.389
GTCGGGAA	0.0732
TACTTCAA	0.16
CTACTGAA	-0.0253
CGGGCAAG	0.0918
